# From the supplement of paper PMC12632987
# The full ranking holds about 4,500 sequences; the median of “median log2 fold change of GCK-ALFA target abundance (FLAG IP / Myc IP barcode read proportion)” is about 0.078, and the lowest 2% start at about -0.6. The list shows a part of the results.
# B1: GBRAP_160_4222 (protein)
# chain: SEVVEKLVEIFREKAREALELMKGESEEERRVVARVMEGEIILEAMELEGVTDEMEEVVDEKAREMAEELVEHYDWSEEELERLIEEKAEELREELEKLA
# B2: GBRAP_160_4339 (protein)
# chain: SERAEKLIKFIKEEFEKLKELIEGETIEQRRVLIEGTFGEIAMELAEDESVSDETVDKVLEIRDETIEYLKKNPDLTEEEIKELIDEAEKKIIEIIKESE
# B3: GBRAP_184_5271 (protein)
# chain: TVVDVELEAETGEEAIAALRAAAAAARAAGARLRVTILLKGASVEEAIALLALLAELRAEGVVEDAVVGIEGDWSEEEIDRLVEAADAAGVRLVIAIPEE
# B4: GBRAP_11_2937 (protein)
# chain: EKEKLKKAQELAKEAQELLKKIQKAGKLDEELLKKAQELLKKAAELAKELGLEEEQKDLELAQELLEEVQKAGKLDETKVAAAQALVFDVAHELEEKLEE
# B5: GBRAP_26_5452 (protein)
# chain: MEEKLEALRDRLVELADELLDPETAALLKVEVDNIVALAELELEEANGDLEKELAVVEEMLEDLEEALDDLEVPEEVKEKLLEAAREAAEEIKEYLKKKS
# B6: GBRAP_160_4345 (protein)
# chain: MERAERLIEEVREAAEEVIEAIDEVSVEEAAVIAAGEFGAVAMEAALDERYTDEEVDVVIEAMDEVIEFLKANKDASVEEIKEGIREITEKAIERIKEIA
# B7: GBRAP_11_2661 (protein)
# chain: KKEVLKEALELAKEAAETVEELIEKGVDNEELRKKAEELLKKLKELAKKYLSKAIQSEVEVAEELWKEAKADEENKEEYWKQLLASLRVLEGNLQLELDE
# B8: GBRAP_14_3843 (protein)
# chain: SEELRARLLAVVDRTVAALREIAPPEYEPRVEEFRRRLEAAVDEVLELGDLEEAERRLIEVAAATVEELFADLPETERAALRAEAENELALGFEEVEEEL
# B9: GBRAP_160_4114 (protein)
# chain: KEELVKTAKDNAKDVEETIEIMKDLSPEEAGNLAIVTLGQILLDASEHGEKFKEIEELAEKAIKKIEETRKTDPSKLKEVSLEELKKVLEALKKKAKELE
# B10: GBRAP_128_3419 (protein)
# chain: SMEEKVEEVRKLLEEMLTADKETQKELADRIFELILESDLETAEAMAEVILEMLPKFTAEQLDILADAGEKHLSKFTPEKQELVADVIVEALNLAEELEE
# B11: GBRAP_122_2959 (protein)
# chain: SESEERLKEALEKLEKAENKPLSEIVRTTMEELSKAKEEENKEKIIEKGAEIISKKLPKVSKEEVLKILKEALELMEKEGVTPEEAAAYADVEILELEME
# B12: GBRAP_53_6412 (protein)
# chain: MEEEIRELREEALRLAEEAARAGPEERERLVDRIGELLARLKEAGAPDEELTELAREIARRLKEAGAPDRALVRLAAHLAALGLEDATAAVAEEAVEELE
# B13: GBRAP_26_5496 (protein)
# chain: FIDEVLERLREELERILADESEDLRAAVIAEAEDLLLEAEEEIEENVDDEEKIEKAIEEAVEELREALRDFGLSEEKIEAIVEALRRALEEIAKHIKEEA
# B14: GBRAP_160_4200 (protein)
# chain: SEKVEKIIELMREEAERVIEAVPELSKEEVANFAAVEFGSVLMEAVEMGLENDEILDTIADAADKIVEFLKENENASDEEIKKGIREIVEKAIEEIKKIA
# B15: GBRAP_11_2775 (protein)
# chain: SKEKLEKIAELAKKAAELVDALIAAGTTDEKLRKELAEALKELKKLVEETDDEFLKKLVEIAEEEFEEAQADPANAEAHLKRMLAALRVLEGQTLLLLEE
# B16: GBRAP_160_4584 (protein)
# chain: SEELKKAKEIIDEEFEEAKEMIKGETAEQRATIVLGTGGEIIMELEELSKATDELLDYVDKIFDELAATILANPDLTEEETIALIEEARKKIKEALEKEF
# B17: GBRAP_160_4150 (protein)
# chain: SEELEKLIEEIKKIAEEAIKLMEGETAENAKTIARVALGEMVMLVESNEAVSDETEDEVGEIARKAEAYLKANPDLTVEEIKALLKKAAEEVIEVLKKEV
# B18: GBRAP_128_3460 (protein)
# chain: SVEEVAEYTAEKMEEMKEASLEEFRELATELAERLLTLSLEEVEAAVEVIEENLEELTAEKLEILAEVFDEALPQFSPEKAALVADVISTALLLAEEKEE
# B19: GBRAP_153_3942 (protein)
# chain: MEERERRLEEAKELADRIEEEGLPEELLLELARLIYSLDEEERLEVAKYLSTLSPETVYAIFLTLATKVPFSTEELLAMITELNEEQEAAALEALVEAQK
# Biological target: GABARAP, O95166
# Test: median log2 fold change of GCK-ALFA target abundance (FLAG IP / Myc IP barcode read proportion) (log2 ratio); each designed protein is fused to an ALFA-tag nanobody in HEK293 cells to bring the named protein to FLAG-tagged glucokinase (GCK); Myc marks an untargeted standard; higher = target protein stabilised (more abundant)
# Conditions: target protein: 3xFLAG-MCP-GCK-ALFA reporter; HEK293 landing pad (RPLP)
# Outline: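 The readout is target abundance, the per-binder median log2 ratio of FLAG to Myc barcode read proportions. It came from HEK293 landing-pad cells carrying a recombined ALFA-nanobody-fused binder library, induced with 2 μg mL^−1 doxycycline and transfected with a plasmid for a FLAG-tagged target and a Myc-tagged standard. After 48 h, lysates were immunoprecipitated with anti-FLAG and anti-Myc, and circular RNA barcodes were reverse transcribed, amplified and sequenced. Each barcode needed a proportion of at least 10^−7 in both replicates and each binder at least 3 barcodes per replicate, a pseudocount of 10^−6 was added, and the replicates were pooled.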
# Chain of GABARAP, O95166 (O95166 whole entry, the tested form may be a part): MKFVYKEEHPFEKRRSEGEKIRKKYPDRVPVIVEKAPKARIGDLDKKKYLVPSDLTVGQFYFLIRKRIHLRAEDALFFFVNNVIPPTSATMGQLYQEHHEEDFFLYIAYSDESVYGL
row,Binder,median log2 fold change
1,B1,-0.387
2,B2,0.103
3,B3,-0.324
4,B4,0.139
5,B5,-0.454
6,B6,-0.347
7,B7,0.256
8,B8,0.159
9,B9,-0.00375
10,B10,-0.219
11,B11,0.211
12,B12,0.147
13,B13,0.00749
14,B14,-0.354
15,B15,0.0543
16,B16,0.109
17,B17,-0.016
18,B18,0.0938
19,B19,0.0949
